Some of the results follow.

This test relates to S. aureus RN4220. Briefly: growth inhibition call (relative growth <= 0.2). Conditions: 50 µM.
With `COc1ccc(S(=O)(=O)Nc2ccc3c(c2)C(=O)N([C@@H](C)CO)C[C@@H](C)[C@@H](CN(C)C(=O)Nc2cccc4ccccc24)O3)cc1`, the growth inhibition call was “inactive”.
Consider `C[C@H]1CN([C@@H](C)CO)C(=O)c2cc(C#Cc3ccccc3F)cnc2O[C@@H]1CN(C)C(=O)c1ccc2c(c1)OCO2`, for which the growth inhibition call is “inactive”.
For `CC(=O)OC[C@H]1O[C@@H](n2cc(C)c(=O)[nH]c2=O)C[C@@H]1OC(C)=O`, the growth inhibition call was “inactive”.
Take `COc1ccc(NC(=O)N[C@H]2CC[C@@H](CCNC(=O)CN3CCOCC3)O[C@@H]2CO)cc1`: the growth inhibition call was “inactive”.
Regarding `CNC(=O)C[C@@H]1CC[C@H]2[C@@H](COC[C@H](O)CN2C(=O)c2ccc3c(c2)OCO3)O1`, the growth inhibition call was “inactive”.
With `C=CC1=C(C(=O)O)N2C(=O)C(NC(=O)C(=NO)c3csc(N)n3)C2SC1` (stereo not drawn), the growth inhibition call is “active”.
The result for `C[C@H]1CCCCO[C@H](CN(C)Cc2ccncc2)[C@@H](C)CN([C@@H](C)CO)C(=O)c2cc(NC(=O)NC3CCCCC3)ccc2O1` reads “inactive”.
On to `Cc1ccc(S(=O)(=O)N(C)C[C@H]2OCCCC[C@@H](C)Oc3ccc(NC(=O)Nc4ccc(C(F)(F)F)cc4)cc3C(=O)N([C@H](C)CO)C[C@@H]2C)cc1`, for which the growth inhibition call was “inactive”.
To `C[C@@H]1CCCCO[C@@H](CN(C)C(=O)c2ccncc2)[C@H](C)CN([C@@H](C)CO)C(=O)c2cc(NS(=O)(=O)c3ccc(Cl)cc3)ccc2O1` belongs “inactive”.
To `O=C(Cc1ccccc1)Nc1ccccc1Sc1ccccc1` belongs “inactive”; to `Cc1noc(C)c1NC(=O)Nc1ccc2c(c1)C(=O)N([C@H](C)CO)C[C@H](C)[C@H](CN(C)Cc1ccc(C(=O)Nc3ccccc3N)cc1)OCCCC[C@@H](C)O2`, “inactive”.
To `CC(=O)N(C)CCc1ccc(C)[n+]([O-])c1` belongs “inactive”; to `CN(C)CCCCNC(=O)[C@@H]1C[C@@H]2C(=O)N[C@@H](CCCC[N+](C)(C)C)C(=O)N2[C@@H]1c1cccc(OCCO)c1`, “inactive”.
